From PubChem BioAssay AID1347165 (National Center for Advancing Translational Sciences (NCATS), 2019)
The campaign covered roughly 220,000 compounds. About 5,700 (2.6%) were called active. Inconclusive means that the source gave no clear call. Such entries were picked first, then a sample of the others. Calls follow the shape of the dose curve; as a rule, active = well fitted inhibition curve with a large enough effect; inconclusive = small, poorly fitted or top-dose-only effect; inactive = no such curve, though single readings can be large or run the other way. A potency beside an inconclusive call is a rough fit, not a confirmed value.
Also: nearly all actives have a fitted effect of over 70% in size.
For activity change, negative = inhibition in this document: 0% is about no effect.
Potency is read from the fitted curve at half-maximal effect; tags tell the direction and shape of the fitted curve.

What follows are compounds tested against Lysine-specific demethylase 5B (Homo sapiens) (UniProt Q9UGL1) (assay: Primary screen for KDM5B Histone Demethylases FDH-coupled qHTS). Conditions: FDH-coupled NADH fluorescence (FDH is formaldehyde dehydrogenase); activity change, negative = inhibition: at 57.7 µM (top of the series) unless noted.
Sequence of UniProt Q9UGL1 (Q9UGL1 whole entry, looked up): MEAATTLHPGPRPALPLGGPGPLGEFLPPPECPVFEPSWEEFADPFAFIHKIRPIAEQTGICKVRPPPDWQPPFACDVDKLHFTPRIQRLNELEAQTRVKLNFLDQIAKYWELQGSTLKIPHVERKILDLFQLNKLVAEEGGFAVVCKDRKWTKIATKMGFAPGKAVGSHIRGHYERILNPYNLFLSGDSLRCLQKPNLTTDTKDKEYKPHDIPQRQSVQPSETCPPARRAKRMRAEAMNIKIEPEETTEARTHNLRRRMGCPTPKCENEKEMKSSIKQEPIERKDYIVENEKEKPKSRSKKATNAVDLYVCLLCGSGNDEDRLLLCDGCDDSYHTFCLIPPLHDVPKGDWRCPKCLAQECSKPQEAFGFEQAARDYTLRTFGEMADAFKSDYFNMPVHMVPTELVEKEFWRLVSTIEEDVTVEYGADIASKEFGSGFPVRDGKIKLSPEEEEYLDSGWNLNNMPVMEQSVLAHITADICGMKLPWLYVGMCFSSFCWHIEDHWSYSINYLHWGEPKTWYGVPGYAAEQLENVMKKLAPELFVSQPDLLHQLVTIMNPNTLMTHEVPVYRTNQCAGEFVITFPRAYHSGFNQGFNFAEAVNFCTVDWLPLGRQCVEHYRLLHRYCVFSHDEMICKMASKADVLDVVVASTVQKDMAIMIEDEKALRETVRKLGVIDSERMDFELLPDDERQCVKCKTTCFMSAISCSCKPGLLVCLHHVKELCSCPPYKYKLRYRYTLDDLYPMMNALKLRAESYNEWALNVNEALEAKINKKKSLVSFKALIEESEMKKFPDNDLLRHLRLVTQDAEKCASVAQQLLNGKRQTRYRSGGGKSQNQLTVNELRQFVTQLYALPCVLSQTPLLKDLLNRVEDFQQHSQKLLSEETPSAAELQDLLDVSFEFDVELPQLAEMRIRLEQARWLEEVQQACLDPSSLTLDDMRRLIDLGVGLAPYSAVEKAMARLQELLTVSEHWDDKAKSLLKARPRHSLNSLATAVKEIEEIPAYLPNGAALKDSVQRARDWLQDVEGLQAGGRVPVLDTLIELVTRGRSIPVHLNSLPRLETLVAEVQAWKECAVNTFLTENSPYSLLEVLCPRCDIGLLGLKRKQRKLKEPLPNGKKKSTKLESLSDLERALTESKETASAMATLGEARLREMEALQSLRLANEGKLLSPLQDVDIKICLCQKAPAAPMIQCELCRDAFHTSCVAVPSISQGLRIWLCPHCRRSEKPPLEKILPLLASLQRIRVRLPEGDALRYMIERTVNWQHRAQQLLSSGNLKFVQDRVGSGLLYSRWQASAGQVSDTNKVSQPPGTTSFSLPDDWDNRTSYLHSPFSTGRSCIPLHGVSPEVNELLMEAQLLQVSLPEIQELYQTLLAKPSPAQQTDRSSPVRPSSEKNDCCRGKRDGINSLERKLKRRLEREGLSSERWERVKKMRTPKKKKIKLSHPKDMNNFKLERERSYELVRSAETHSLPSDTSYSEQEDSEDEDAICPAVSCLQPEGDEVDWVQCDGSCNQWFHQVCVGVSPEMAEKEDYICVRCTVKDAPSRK
Method in brief: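 Here, H3K4me3 peptide (12.5 µM in substrate mix) is demethylated by KDM5BΔAP, 200 nM final, after 10 min compound exposure. Formaldehyde product is coupled through FDH (0.25 U/mL in mix) to NADH fluorescence; 30-min ΔRFU feeds dose-response curves.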
In the case of O=c1nc(-c2ccc(Cl)cc2)c2cc(Cl)ccc2[nH]1, the Potency is reported as inconclusive: 8.91 µM [inhibitor, full curve, poor fit].
For COc1ccc(/C=C/c2nc3ccccc3s2)c(OC)c1OC, the Potency was inconclusive: 22.4 µM [inhibitor, partial curve, poor fit].
With CN(C)CCCN(Cc1ccccc1)C(=O)c1nn(C)c(=O)c2ccccc12 the Potency was inconclusive: 10 µM [inhibitor, partial curve, poor fit].
In the case of Cc1nn(CC(=O)NC2CCCCC2)c(=O)c2nc(C(C)C)sc12, the Potency is reported as inconclusive: 6.31 µM [inhibitor, single point].
For COc1ccccc1CNC(=O)c1nnn2cc(C)[nH]c(=O)c12, the Potency was inconclusive: 22.4 µM [inhibitor, partial curve, poor fit].
For Cc1cccn2cc(COc3ccc(C(=O)O)cc3)nc12, the Potency was “inactive”.
With CN1[C@@H](CCC(=O)N2CCCC2)CNC(=O)[C@@H]2[C@H]1CCN2CC(C)(C)C the Potency was inconclusive: 39.8 µM [inhibitor, single point].
With CC(C)c1noc(-c2cccn3c(CNC(=O)c4ccccc4)nnc23)n1 the Potency was active: 22.4 µM.
For COc1ccc([N+](=O)[O-])c2cccnc12, the Potency was inconclusive: 35.5 µM [inhibitor, single point].
Cc1ccc(Nc2nnc(-c3ccc(C)c(S(=O)(=O)N4CCOCC4)c3)c3ccccc23)c(C)c1 was tested, and the Potency was inconclusive: 39.8 µM [inhibitor, single point].
For CCC(Cc1ccccc1)NC(=O)Cn1ncc2c3ccccc3n(Cc3ccccc3)c2c1=O (stereo unspecified), the Potency was inconclusive: 22.4 µM [inhibitor, partial curve, poor fit].
In the case of COC(=O)\C(=C/C=C/C=C/N(C)C)C(C)=O, the Potency is reported as inconclusive: 22.4 µM [inhibitor, single point].
O=C(c1cc(-c2cccs2)nc2ccccc12)N1CCN(CCN2CCCC2)CC1 was tested, and the Potency was inconclusive: 25.1 µM [inhibitor, partial curve, poor fit].
COc1ccc(-n2c(=O)c3sc4ccccc4c3n(CC(=O)Nc3ccccc3F)c2=O)cc1 was tested, and the activity change, negative = inhibition was inconclusive: -34.1% [inhibitor].
With O=C(NCc1nncn1CCc1ccccc1)C1CC2(CCNCC2)CN1 (stereo unspecified) the Potency was inconclusive: 3.98 µM [inhibitor, partial curve, poor fit].
For N#Cc1ccc(NC(=S)N[C@H]2CO[C@H]3[C@@H]2OC[C@H]3OC(=O)Nc2ccccc2)cc1, the Potency was inconclusive: 31.6 µM [inhibitor, single point].
In the case of CCOc1ccc(C2CC(=O)N(c3cccc(C(F)(F)F)c3)C3=C2C(=O)OC3)cc1 (stereo unspecified), the Potency is reported as “inactive”.
In the case of Cn1c(=O)c2c(-c3ccc(F)cc3)n(CCCO)cc2n(C)c1=O, the Potency is reported as “inactive”.
With COC(=O)c1cnc(NCc2ccc(F)cc2)c2ccccc12 the Potency was inconclusive: 31.6 µM [inhibitor, partial curve, poor fit].
CCOc1cc2c(cn1)NCCN(Cc1ccncc1Cl)C2 was tested, and the Potency was inconclusive: 31.6 µM [inhibitor, single point].
CSc1ccccc1C(=O)Nc1cc(C(F)(F)F)cc(C(F)(F)F)c1 was tested, and the Potency was “inactive”.
With NC1CCCCN(C(=O)CCc2nc3ccccc3[nH]c2=O)C1 (stereo unspecified) the Potency was inconclusive: 25.1 µM [inhibitor, partial curve, poor fit].
COc1ccc(Cl)cc1C(=O)NCCN1CCCCC1 was tested, and the Potency was inconclusive: 25.1 µM [inhibitor, partial curve, poor fit].
For C[C@@H]1CN(C(=O)c2ccc(=O)n(C)c2)CC[C@@]1(O)C1CCOCC1, the Potency was inconclusive: 14.1 µM [inhibitor, single point].
For CC(C)c1ccc(OC(=O)c2cc(-c3ccc(Cl)cc3)on2)cc1, the activity change, negative = inhibition was inconclusive: -34.1% [inhibitor].
Cc1ccc(-n2ncc3c(NCCCn4ccnc4)ncnc32)cc1Cl was tested, and the Potency was inconclusive: 35.5 µM [inhibitor, partial curve, poor fit].
O=C(Cn1c2c(c(=O)n1Cc1ccccc1)CCN(Cc1ccccc1)C2)NCc1cnccn1 was tested, and the Potency was “inactive”.
With COC(=O)c1c(C)[nH]c(C(=O)Cn2nnc(-c3ccc(C(C)C)cc3)n2)c1C the Potency was “inactive”.
COc1ccc(NC(=O)CSc2nc(-c3ccco3)cc(C(F)(F)F)n2)cc1 was tested, and the Potency was inconclusive: 20 µM [inhibitor, partial curve, poor fit].
In the case of CCCOc1ccc(NC(=O)C(=O)c2c(C)[nH]c3ccccc23)cc1, the Potency is reported as inconclusive: 39.8 µM [inhibitor, single point].
With CCc1ccccc1NC(=O)Cn1ccn2nc3c(c2c1=O)CCCC3 the Potency was active: 35.5 µM.
COCCC(=O)N1CCCC(Cc2nc(C3CCOCC3)no2)C1 (stereo unspecified) was tested, and the Potency was inconclusive: 22.4 µM [inhibitor, single point].
CNC(=O)CCn1ncc2cc(OCc3ccccc3-c3ccc(F)cc3)ccc21 was tested, and the Potency was “inactive”.
O=C(Nc1cccc(F)c1)N1CC2CC(C1)[C@H]1CCCC(=O)N1C2 (stereo partly specified) was tested, and the Potency was “inactive”.
With CCOC(=O)CCN(Cc1cc(C)ccc1C)CC1CC1 the Potency was “inactive”.
For O=C(NC1CC(=O)N(Cc2cccc(F)c2)C1)c1ccccn1 (stereo unspecified), the Potency was “inactive”.
CCCN(C)c1ccc(/C=N/NC(=S)Nc2ccc(C)cc2)cc1 was tested, and the Potency was inconclusive: 8.91 µM [inhibitor, partial curve, poor fit].
For CCOc1ccc2c(c1)c(C(C)=O)c(C)n2-c1cccc(Cl)c1, the Potency was “inactive”.
For N#CCCN1CCN(C(=O)c2cn3ccnc(-c4ccccc4)c3n2)CC1, the Potency was “inactive”.
In the case of Cc1ccc(CNC(=O)c2ccc(CS(=O)Cc3ccc(C)cc3)o2)cc1 (stereo unspecified), the Potency is reported as “inactive”.
For Cn1c(=O)c2c(nc(NCc3ccccc3)n2Cc2cccc(Br)c2)n(C)c1=O, the Potency was “inactive”.
For Cc1ccc(COc2ccc(/C=N/NC(=O)c3nnn(-c4nonc4N)c3COc3ccc(F)cc3)cc2)cc1, the Potency was inconclusive: 28.2 µM [inhibitor, partial curve, poor fit].
For O=C(c1cc[nH]c1C1CCCNC1)N(Cc1ccc(F)cc1)Cc1cccnc1 (stereo unspecified), the Potency was inconclusive: 12.6 µM [inhibitor, partial curve].
In the case of O=C(Nc1ccc(F)cc1)c1nc(S(=O)(=O)Cc2ccc(F)cc2)ncc1Cl, the Potency is reported as inconclusive: 3.98 µM [inhibitor, full curve, poor fit].
With CNCC(=O)N[C@@H]1C=C(C(=O)N[C@H](CC(C)C)C(N)=O)C[C@@H](O)[C@@H]1O the Potency was inconclusive: 35.5 µM [inhibitor, partial curve].
Cc1nnc2c(Nc3cccc(O)c3)nc3ccccc3n12 was tested, and the Potency was inconclusive: 11.2 µM [inhibitor, partial curve, poor fit].
For CCN(CC)S(=O)(=O)c1cccc(NC(=S)Nc2ccc(C)c(C)c2)c1, the Potency was inconclusive: 28.2 µM [inhibitor, single point].
In the case of O=C(NC[C@H]1O[C@@H](CO)[C@@H](O)[C@H]1N1CCN(c2ccccn2)CC1)c1ccccc1, the Potency is reported as “inactive”.
In the case of COc1ccccc1NC(=O)Nc1ccc(NC(=O)c2ccccc2O)cc1, the Potency is reported as inconclusive: 39.8 µM [inhibitor, single point].
CN1CCN(C2CCN(Cc3ccccn3)C2=O)CC1 (stereo unspecified) was tested, and the Potency was “inactive”.
For c1ccc(OCC2CN(Cc3ccc4[nH]ccc4c3)CC23CN(c2ccccc2)C3)cc1 (stereo unspecified), the Potency was inconclusive: 35.5 µM [inhibitor, partial curve, poor fit].
For CCC(C)NC(=O)c1ccc2c(=O)n3c(nc2c1)CCCCC3 (stereo unspecified), the activity change, negative = inhibition was inconclusive: -30.4% [inhibitor].
Cc1ccc(Sc2ccc(NC(=O)c3ccccc3)cc2)c(C)c1 was tested, and the Potency was “inactive”.
O=C(CN1CC2CC(C1)[C@H]1CCCC(=O)N1C2)N1CCN(c2ncccn2)CC1 (stereo partly specified) was tested, and the Potency was inconclusive: 31.6 µM [inhibitor, partial curve, poor fit].
For COc1cccc(C(=O)Nc2sc3c(c2C(N)=O)CCC(C)C3)c1OC(F)F (stereo unspecified), the Potency was “inactive”.
In the case of CCc1ccc(-c2[nH]nc3nc(-c4ccc(OC)cc4)cc(C(=O)NCCc4ccc(OC)c(OC)c4)c23)cc1, the Potency is reported as inconclusive: 31.6 µM [inhibitor, partial curve, poor fit].
CCOC(=O)c1cnc2ccc(OC)cc2c1Nc1cccc(Cl)c1 was tested, and the Potency was “inactive”.
COc1ccccc1CN(Cc1ccco1)c1cnc(S(C)(=O)=O)nc1C(=O)Nc1ccccc1 was tested, and the Potency was “inactive”.
Cc1ccc(C(=O)N(C)C2CCc3nn(CC4CC4)c(=O)n3CC2)c(=O)[nH]1 (stereo unspecified) was tested, and the Potency was inconclusive: 31.6 µM [inhibitor, single point].
CC(C)Cn1c2c(c(=O)[nH]c1=O)C(NS(=O)(=O)c1ccc(Cl)cc1)(C(F)(F)F)C(=O)N2 (stereo unspecified) was tested, and the Potency was “inactive”.
CCN1CCN(c2ncc3c(n2)CCN(Cc2ccc(Br)s2)C3)CC1 was tested, and the Potency was inconclusive: 25.1 µM [inhibitor, single point].
Cc1ccc(-c2cc3c(=O)n(CCNC(=O)Cc4c[nH]c5ccccc45)ccn3n2)cc1C was tested, and the Potency was inconclusive: 20 µM [inhibitor, single point].
With CCOc1ccc(/C=C/c2nc3ccccc3n2S(=O)(=O)c2ccc(Br)cc2)cc1 the Potency was inconclusive: 14.1 µM [inhibitor, partial curve, poor fit].
In the case of COc1cccc(NC(=O)Cn2c(=O)n(-c3ccc(Cl)cc3)c(=O)c3sc4ccccc4c32)c1, the Potency is reported as inconclusive: 31.6 µM [inhibitor, partial curve, poor fit].
O=C(Cn1c(=O)nc(-c2ccccc2)c2cc(Cl)ccc21)NCCc1ccc(Cl)cc1 was tested, and the Potency was inconclusive: 3.16 µM [inhibitor, full curve, poor fit].
For COc1ccc([S+](=O)([O-])c2nnn3c2nc(NCc2ccncc2)c2ccccc23)cc1, the Potency was inconclusive: 63.1 µM [inhibitor, partial curve, poor fit].
